Structures can show the parent of a compound that is named as a salt. ± gives the standard deviation of the averaged measurements. Over roughly 1,900 compounds, “normalised cell viability (NPI; 0 = phenylarsine oxide control, 1 = DMSO control)” has its median near 1; the lowest 2% begin near 0.039. This is one part of the list.
Test system: NCI-H1944
Assay: normalised cell viability (NPI; 0 = phenylarsine oxide control, 1 = DMSO control) (fraction of DMSO control); NCI-H1944 is a non-small cell lung cancer line; higher = more viable cells (less compound toxicity)
Conditions: 6 days
[1] = glucocorticoid arm: hydrocortisone 2.75 uM co-treatment, compound 1 µM
[2] = glucocorticoid arm: hydrocortisone 2.75 uM co-treatment, compound 5 µM
[3] = glucocorticoid arm: hydrocortisone 2.75 uM pre-treated 2 days and continued, compound 1 µM
[4] = glucocorticoid arm: hydrocortisone 2.75 uM pre-treated 2 days and continued, compound 5 µM
[5] = glucocorticoid arm: vehicle, compound 1 µM
[6] = glucocorticoid arm: vehicle, compound 5 µM
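Note: CTB read-out in 384-well plates, mean of triplicate wells, normalised per plate against 1 µM phenylarsine oxide and 0.1% DMSO, compounds added 24 h after seeding.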

Row | SMILES | normalised cell viability [1] | normalised cell viability [2] | normalised cell viability [3] | normalised cell viability [4] | normalised cell viability [5] | normalised cell viability [6]
1 | CC(=O)O[C@]1(C(C)=O)CC[C@H]2[C@@H]3C=C(C)C4=CC(=O)CC[C@]4(C)[C@H]3CC[C@@]21C [Megestrol acetate] | 1.02 | 0.8967 ± 0.0085 | 1.007 ± 0.0058 | 0.942 ± 0.012 | 0.97 ± 0.013 | 0.642 ± 0.013
2 | CC(=O)O[C@]1(C(C)=O)CC[C@H]2[C@@H]3C=C(C)C4=CC(=O)CC[C@]4(C)[C@H]3CC[C@@]21C [Megestrol Acetate] | 0.996 ± 0.014 | 1.017 ± 0.0058 | 1.01 ± 0.013 | 1.02 ± 0.011 | 0.952 ± 0.014 | 0.946 ± 0.012
3 | Cc1nc(N=Nc2cc(S(=O)(=O)O)c3cc([N+](=O)[O-])cc(S(=O)(=O)O)c3c2)c(COP(=O)(O)O)c(C=O)c1O [PPNDS tetrasodium] | 1.001 ± 0.0085 | 1.01 ± 0.037 | 1.013 ± 0.0058 | 0.857 ± 0.27 | 0.9973 ± 0.0021 | 0.999 ± 0.0098
4 | Cc1cccc(C2CN(C)CCc3c2cc(O)c(O)c3Cl)c1 (stereo unspecified) | 0.974 ± 0.018 | 0.979 ± 0.026 | 0.856 ± 0.23 | 0.977 ± 0.02 | 0.982 ± 0.0044 | 0.986 ± 0.0052
5 | CCN1CCN(c2ccc(Nc3cc(N(C)C(=O)Nc4c(Cl)c(OC)cc(OC)c4Cl)ncn3)cc2)CC1 | 1.03 ± 0.01 | 1.033 ± 0.0058 | 1.01 ± 0.019 | 1.02 ± 0.01 | 1.007 ± 0.0058 | 0.998 ± 0.021
6 | Oc1cc(O)cc(/C=C/c2ccc(O)c(O)c2)c1 [Piceatannol] | – | – | – | – | 1 | –
7 | CC[C@@]1(O)C(=O)OCc2c1cc1n(c2=O)Cc2cc3c(CN(C)C)c(O)ccc3nc2-1 [Topotecan HCl; Topotecan hydrochloride] | 0.253 ± 0.013 | 1.067 ± 0.0058 | 0.5493 ± 0.0029 | 1.05 ± 0.02 | 0.0903 ± 0.0031 | 1.01 ± 0.011
8 | Nc1nnc(-c2cccc(Cl)c2Cl)c(N)n1 [Lamotrigine] | 0.998 ± 0.0035 | 0.986 ± 0.039 | 1 ± 0.028 | 0.954 ± 0.076 | 1.01 ± 0.011 | 1.01 ± 0.018
9 | CCOC(=O)N[C@@H]1CC[C@@H]2[C@@H](C1)C[C@H]1C(=O)O[C@H](C)[C@H]1[C@H]2/C=C/c1ccc(-c2cccc(F)c2)cn1 [Vorapaxar] | 1.023 ± 0.0058 | 1.01 ± 0.014 | 1.03 ± 0.011 | 1.01 ± 0.012 | 1.002 ± 0.0068 | 0.98 ± 0.013
10 | O=C(O)c1ccc(O)c2ncccc12 | 0.966 ± 0.015 | 0.996 ± 0.0036 | 0.953 ± 0.034 | 0.987 ± 0.01 | 1.001 ± 0.0085 | 0.9917 ± 0.0049
11 | CO[C@H]1C[C@@H]2CC[C@@H](C)[C@@](O)(O2)C(=O)C(=O)N2CCCC[C@H]2C(=O)O[C@H]([C@H](C)C[C@@H]2CC[C@H](n3cnnn3)[C@H](OC)C2)CC(=O)[C@H](C)/C=C(\C)[C@@H](O)[C@@H](OC)C(=O)[C@H](C)C[C@H](C)/C=C/C=C/C=C/1C [Zotarolimus(ABT-578)] | 0.7853 ± 0.0061 | 0.654 ± 0.011 | 0.71 ± 0.024 | 0.75 ± 0.023 | 0.689 ± 0.011 | 0.598 ± 0.049
12 | O=C(c1ccc(Cl)cc1Cl)n1nnc2ccccc21 | 0.996 ± 0.028 | 1.01 ± 0.055 | 1 ± 0.016 | 1.01 ± 0.033 | 1.003 ± 0.0055 | 0.999 ± 0.012
13 | CN1C2CCC1CC(NC(=O)c1nn(C)c3ccccc13)C2 (stereo unspecified) [LY-278,584 maleate] | 0.9863 ± 0.0067 | 0.977 ± 0.033 | 0.9957 ± 0.0075 | 1.03 ± 0.085 | 0.9753 ± 0.0051 | 0.9783 ± 0.0091
14 | Cc1nnc(SCC2=C(C(=O)O)N3C(=O)[C@@H](NC(=O)Cn4cnnn4)[C@H]3SC2)s1 [Cefazolin sodium] | 1.003 ± 0.0058 | 1.01 ± 0.011 | 0.998 ± 0.013 | 1.02 ± 0.014 | 0.989 ± 0.0089 | 1.005 ± 0.0087
15 | Cc1cc(F)c(Nc2ncnc3cc(OCc4ccccc4)ccc23)cc1O | 1.01 ± 0.016 | 0.975 ± 0.01 | 1.04 ± 0.02 | 1.02 ± 0.016 | 1.003 ± 0.0058 | 0.998 ± 0.011
16 | CCCCC1(C2CCCC2)Cc2cc(OCC(=O)O)c(Cl)c(Cl)c2C1=O (stereo in doubt) [R(+)-Butylindazone] | 0.9903 ± 0.0064 | 0.958 ± 0.011 | 0.988 ± 0.01 | 0.965 ± 0.028 | 0.983 ± 0.006 | 0.9887 ± 0.004
17 | O=c1[nH]c2cc(Cl)c(Cl)cc2[nH]c1=O [6,7-Dichloroquinoxaline-2,3-dione] | 1.01 ± 0.011 | 1.04 ± 0.011 | 1.003 ± 0.0061 | 1.04 ± 0.021 | 0.989 ± 0.007 | 1.002 ± 0.0068
18 | c1cc(CN2CCCNCCNCCCNCC2)ccc1CN1CCCNCCNCCCNCC1 [Plerixafor] | 1 ± 0.018 | 1 ± 0.017 | 1.01 ± 0.011 | 0.996 ± 0.016 | 1.006 ± 0.0063 | 1.01 ± 0.013
19 | O=C1OC(=O)[C@H]2[C@@H]1[C@@H]1CC[C@H]2O1 [Norcantharidin] | 1.007 ± 0.0058 | 1.03 ± 0.02 | 1.02 ± 0.011 | 0.924 ± 0.23 | 0.9903 ± 0.0011 | 1 ± 0.022
20 | C=C(C)C1CC=C(C(=O)O)CC1 [(S)-(-)-Perillic acid] | 1 ± 0.0095 | 0.999 ± 0.021 | 1.01 ± 0.018 | 0.999 ± 0.0017 | 1.01 ± 0.011 | 0.992 ± 0.012
21 | NCCCCN [Putrescine dihydrochloride] | 0.982 ± 0.0056 | 0.993 ± 0.022 | 1.01 ± 0.027 | 0.998 ± 0.014 | 0.977 ± 0.0056 | 0.9723 ± 0.0049
22 | O=C(NCCCNc1nc(Nc2cccc(NC(=O)N3CCCC3)c2)ncc1I)c1cccs1 | 0.9797 ± 0.0095 | 0.993 ± 0.027 | 0.9587 ± 0.0025 | 1.05 ± 0.017 | 0.71 ± 0.01 | 0.3133 ± 0.0023
23 | CN1CC[C@@H](c2c(O)cc(O)c3c(=O)cc(-c4ccccc4Cl)oc23)[C@@H]1CO | 0.183 ± 0.011 | 0.031 ± 0.004 | 0.601 ± 0.026 | 0.0698 ± 0.0051 | 0.0431 ± 0.0039 | 0.00913 ± 0.002
24 | O=C(O)c1cc([N+](=O)[O-])ccc1NCCCc1ccccc1 [5-Nitro-2-(3-phenylpropylamino)benzoic acid] | 1 | 1 ± 0.026 | 1.01 ± 0.02 | 0.877 ± 0.24 | 0.9907 ± 0.0057 | 1 ± 0.013
25 | S=c1[nH]cnc2nc[nH]c12 [Mercaptopurine] | 0.956 ± 0.014 | 0.739 ± 0.047 | 0.9827 ± 0.0086 | 0.875 ± 0.036 | 0.9903 ± 0.0096 | 0.794 ± 0.028
26 | COc1cc2c(cc1OC)-c1c/c(=N\c3c(C)cc(C)cc3C)n(C)c(=O)n1CC2 [Trequinsin hydrochloride] | 1.03 ± 0.015 | 1.02 ± 0.022 | 0.908 ± 0.2 | 1.033 ± 0.0058 | 1.023 ± 0.0058 | 1.05 ± 0.035
